The record followed here is the supplement of paper PMC12217912.

B1: TEV protease; numbered along this chain (parent)
chain: MGESLFKGPRDYNPISSSICHLTNESDGHTTSLYGIGFGPFIITNKHLFRRNNGTLVVQSLHGVFKVKDTTTLQQHLVDGRDMIIIRMPKDFPPFPQKLKFREPQREERICLVTTNFQTKSMSSMVSDTSCTFPSGDGIFWKHWIQTKDGQCGSPLVSTRDGFIVGIHSASNFTNTNNYFTSVPKNFMELLTNQEAQQWVSGWRLNADSVLWGGHKVFMVKPEEPFQPVKEATQL

The list shows a part of the results. The full chains were built here from the parent and the listed change. Values near 0.05 are background.

The variants in the assay derive from B1. As to the kind of experiment: raw area under fraction-flipped curve 0-4 h after induction (AUC4h, not background-subtracted), DNA-recorder readout of cleavage of the substrate (dimensionless); higher = more cleavage of the substrate by the protease variant. The conditions noted are these: temperature: 34 °C; time window: 0-4 h after rhamnose induction. The procedure:
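In vivo DNA recorder in E. coli TOP10(DE3) ΔrhaA at 34 °C. Each TEVp single-site mutant (parent TEVp 0) is paired with a single-site variant of the 7-mer TEVs (canonical ENLYFQ|S). The substrate sits between flexible linkers in a Bxb1-sfGFP-TEVs-SsrA fusion, so cleavage stabilises Bxb1 and speeds flipping of a recombination array, read by NGS. The value is the raw area under the fraction-flipped curve over 0-4 h after rhamnose induction (AUC4h), with ≥20 reads per time point. It is not background-subtracted; inactive controls average about 0.047.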
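Note: Bxb1 expression induced with 0.2% (w/v) L-rhamnose at OD600 near 0.5, cultures sampled hourly, flipped fraction per protease–substrate barcode pair counted by paired-end Illumina sequencing.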

Regarding MGESMFKGPRDYNPISSSICHLTNESDGHTTSLYGIGFGPFIITNKHLFRRNNGTLVVQSLHGVFKVKDTTTLQQHLVDGRDMIIIRMPKDFPPFPQKLKFREPQREERICLVTTNFQTKSMSSMVSDTSCTFPSGDGIFWKHWIQTKDGQCGSPLVSTRDGFIVGIHSASNFTNTNNYFTSVPKNFMELLTNQEAQQWVSGWRLNADSVLWGGHKVFMVKPEEPFQPVKEATQL [L5M], the “area with substrate ENLYFQA” value was 0.14, the “area with substrate ENLYFQC” value turned out to be 0.124, the “area with substrate ENLYFQE” value came out at 0.0846 and the “area with substrate ENLYFQF” value was 0.0862. Also, the “area with substrate ENLYFQI” value was determined as 0.047, the “area with substrate ENLYFQK” value is 0.0732, the “area with substrate ENLYFQL” value was found to be 0.0657 and the “area with substrate ENLYFQM” value was 0.111. Also, the “area with substrate ENLYFQN” value was found to be 0.0897, the “area with substrate ENLYFQS” value was 0.129, the “area with substrate ENLYFQT” value turned out to be 0.0759 and the “area with substrate ENLYFQW” value worked out at 0.0613. Further, the “area with substrate ENLYFQY” value worked out at 0.112.
Take MGESLFKGPRDYNPISSSICHLTNESDGHTTSLYGIGFGPFIITNKHLFRRNNGTLVVQSLHGVFKVKDTTTLQQHLVDGRDMIIIRMPKDFPPFPQKLKFREPQREERICLVTTNFQTKSMSSMVSDTSCTFPSGDGIFWKHWIQTKDGQCGSPLVSTRDGFIVGIVSASNFTNTNNYFTSVPKNFMELLTNQEAQQWVSGWRLNADSVLWGGHKVFMVKPEEPFQPVKEATQL [H168V]: the “area with substrate ENLYFQA” value was 0.0581, the “area with substrate ENLYFQC” value is 0.0751, the “area with substrate ENLYFQF” value was 0.0526 and the “area with substrate ENLYFQG” value turned out to be 0.0631. The “area with substrate ENLYFQH” value worked out at 0.0586, the “area with substrate ENLYFQK” value worked out at 0.057, the “area with substrate ENLYFQL” value came to 0.058 and the “area with substrate ENLYFQM” value came to 0.0879. Also, the “area with substrate ENLYFQP” value worked out at 0.0545, the “area with substrate ENLYFQQ” value came to 0.0571, the “area with substrate ENLYFQR” value came out at 0.0546 and the “area with substrate ENLYFQS” value is 0.0614. Further, the “area with substrate ENLYFQT” value is 0.0692, the “area with substrate ENLYFQV” value turned out to be 0.0512 and the “area with substrate ENLYFQW” value was 0.0705.
On to MGESLFKGPRDYNPISSSICHLTNESDGHTTSLYGIGFGPFIITNKHLFRRNNGTLVVQSLHGVFKVKDTTTLQQHLVDGRDMIIIRMPKDFPPFPQKLKFREPQREERICLVTTNFQTKSMSSMVSDTSCTFPSGDGIFWKHWIQTKDGQCGSPLVSTRDGFICGIHSASNFTNTNNYFTSVPKNFMELLTNQEAQQWVSGWRLNADSVLWGGHKVFMVKPEEPFQPVKEATQL [V165C], for which the “area with substrate ENLYFQA” value stood at 0.0848, the “area with substrate ENLYFQC” value was found to be 0.0737, the “area with substrate ENLYFQE” value is 0.06 and the “area with substrate ENLYFQG” value turned out to be 0.101. Moreover, the “area with substrate ENLYFQI” value stood at 0.0551, the “area with substrate ENLYFQK” value was 0.0607, the “area with substrate ENLYFQL” value was 0.0615 and the “area with substrate ENLYFQN” value was 0.0558. In addition, the “area with substrate ENLYFQR” value was 0.0563, the “area with substrate ENLYFQS” value is 0.0928 and the “area with substrate ENLYFQV” value came to 0.0669.
Consider MGESLFKGPRDYNPISSSICHLTNESDGHTTSLYGPGFGPFIITNKHLFRRNNGTLVVQSLHGVFKVKDTTTLQQHLVDGRDMIIIRMPKDFPPFPQKLKFREPQREERICLVTTNFQTKSMSSMVSDTSCTFPSGDGIFWKHWIQTKDGQCGSPLVSTRDGFIVGIHSASNFTNTNNYFTSVPKNFMELLTNQEAQQWVSGWRLNADSVLWGGHKVFMVKPEEPFQPVKEATQL [I36P], for which the “area with substrate ENLYFQA” value was determined as 0.0496, the “area with substrate ENLYFQC” value turned out to be 0.0372, the “area with substrate ENLYFQF” value is 0.0207 and the “area with substrate ENLYFQG” value was determined as 0.0445. The “area with substrate ENLYFQH” value was 0.0446, the “area with substrate ENLYFQI” value stood at 0.0189, the “area with substrate ENLYFQK” value turned out to be 0.0386 and the “area with substrate ENLYFQL” value worked out at 0.0423. Moreover, the “area with substrate ENLYFQM” value was determined as 0.0568, the “area with substrate ENLYFQN” value came out at 0.0239, the “area with substrate ENLYFQP” value came to 0.0451 and the “area with substrate ENLYFQS” value is 0.0411. Moreover, the “area with substrate ENLYFQT” value is 0.0389, the “area with substrate ENLYFQV” value turned out to be 0.0344, the “area with substrate ENLYFQW” value amounted to 0.0426 and the “area with substrate ENLYFQY” value was found to be 0.0389.
As for MGESLFKGPRDYNPISSSICHLTNESDGHTTSLYGIGFGPFIITNKHLFRRNNGTLVVQSLHGVFKVKDTTTLQQHLVDGRDMIIIRMPKDFPPFPQKLKFREPQKEERICLVTTNFQTKSMSSMVSDTSCTFPSGDGIFWKHWIQTKDGQCGSPLVSTRDGFIVGIHSASNFTNTNNYFTSVPKNFMELLTNQEAQQWVSGWRLNADSVLWGGHKVFMVKPEEPFQPVKEATQL [R106K], the “area with substrate ENLYFQA” value came out at 0.0926, the “area with substrate ENLYFQC” value amounted to 0.12, the “area with substrate ENLYFQH” value stood at 0.0906 and the “area with substrate ENLYFQK” value amounted to 0.062. The “area with substrate ENLYFQL” value came out at 0.0767, the “area with substrate ENLYFQM” value turned out to be 0.102, the “area with substrate ENLYFQN” value stood at 0.0853 and the “area with substrate ENLYFQS” value came out at 0.104. The “area with substrate ENLYFQW” value was 0.072 and the “area with substrate ENLYFQY” value was found to be 0.101.
Regarding MGESLFKGPRDYNPISSSICHLTNESDGHTTSLYGIGFGPFIIRNKHLFRRNNGTLVVQSLHGVFKVKDTTTLQQHLVDGRDMIIIRMPKDFPPFPQKLKFREPQREERICLVTTNFQTKSMSSMVSDTSCTFPSGDGIFWKHWIQTKDGQCGSPLVSTRDGFIVGIHSASNFTNTNNYFTSVPKNFMELLTNQEAQQWVSGWRLNADSVLWGGHKVFMVKPEEPFQPVKEATQL [T44R], the “area with substrate ENLYFQA” value is 0.0501, the “area with substrate ENLYFQC” value is 0.0452, the “area with substrate ENLYFQD” value came to 0.0516 and the “area with substrate ENLYFQG” value came to 0.0737. Further, the “area with substrate ENLYFQI” value was determined as 0.0477, the “area with substrate ENLYFQK” value worked out at 0.0451, the “area with substrate ENLYFQL” value is 0.0467 and the “area with substrate ENLYFQM” value amounted to 0.0429. Besides, the “area with substrate ENLYFQN” value was determined as 0.0411, the “area with substrate ENLYFQP” value came out at 0.0443, the “area with substrate ENLYFQQ” value came out at 0.0232 and the “area with substrate ENLYFQR” value came out at 0.0417. Also, the “area with substrate ENLYFQS” value amounted to 0.0471, the “area with substrate ENLYFQT” value worked out at 0.0446, the “area with substrate ENLYFQV” value was 0.0472 and the “area with substrate ENLYFQW” value is 0.0571. In addition, the “area with substrate ENLYFQY” value came to 0.0383.
On to MGESLFKGPRDYNPISSSICHLTNESDGHTTSLYGIGFGPFIITNKHLFRRNNGTLVVQSLHGVFKVKDTTTLQQHLVDGRDMIIIRMPKDFPPFPQKLKFREPQREERICLVTTNFQTKSMSSMVSDTSCTFPSGDGIFWKHWIQTKDGQCGSPLVSTGDGFIVGIHSASNFTNTNNYFTSVPKNFMELLTNQEAQQWVSGWRLNADSVLWGGHKVFMVKPEEPFQPVKEATQL [R160G], for which the “area with substrate ENLYFQA” value was determined as 0.121, the “area with substrate ENLYFQC” value is 0.179, the “area with substrate ENLYFQD” value turned out to be 0.0549 and the “area with substrate ENLYFQG” value was determined as 0.124. For the same variant, the “area with substrate ENLYFQH” value is 0.0838, the “area with substrate ENLYFQI” value turned out to be 0.0541, the “area with substrate ENLYFQK” value was 0.0465 and the “area with substrate ENLYFQL” value came to 0.0591. Also, the “area with substrate ENLYFQN” value stood at 0.0769, the “area with substrate ENLYFQP” value worked out at 0.0649, the “area with substrate ENLYFQQ” value stood at 0.0618 and the “area with substrate ENLYFQR” value stood at 0.0573. For the same variant, the “area with substrate ENLYFQS” value is 0.112, the “area with substrate ENLYFQV” value came to 0.0602, the “area with substrate ENLYFQW” value was found to be 0.0644 and the “area with substrate ENLYFQY” value came out at 0.0736.
Regarding MGESLFKGPRDYNPISSSICHLTNESDGHTTSLYGIGFGPFIITNKHLFRRNNGTLVVQSLHGVFKVKDTTTLQQHLVDGRDMIIIRMPKDFPPFPQKLKFREPQREERICLVTTNFQTKSMSSMVSDTSCTFPSGDGIFWKHWIQTKDGQCGSPLVSTRDGFIVGIHSASNFTNTNNYFTSVPKNPMELLTNQEAQQWVSGWRLNADSVLWGGHKVFMVKPEEPFQPVKEATQL [F187P], the “area with substrate ENLYFQA” value was 0.0396, the “area with substrate ENLYFQC” value was determined as 0.0524, the “area with substrate ENLYFQH” value was 0.0496 and the “area with substrate ENLYFQK” value worked out at 0.055. Moreover, the “area with substrate ENLYFQN” value is 0.0413, the “area with substrate ENLYFQR” value turned out to be 0.024, the “area with substrate ENLYFQS” value came out at 0.0586 and the “area with substrate ENLYFQT” value stood at 0.0647. In addition, the “area with substrate ENLYFQV” value is 0.0567 and the “area with substrate ENLYFQY” value was found to be 0.038.
Regarding MGESLFKGPRDYNPISSSICHLTNESDGHTTSLYGIGFGPFIITNKHLFRRNNGTLVVQSLHGVFKVKDTTTLQQHLVDGRDMIIIRMPKDFPPFPQKLKFIEPQREERICLVTTNFQTKSMSSMVSDTSCTFPSGDGIFWKHWIQTKDGQCGSPLVSTRDGFIVGIHSASNFTNTNNYFTSVPKNFMELLTNQEAQQWVSGWRLNADSVLWGGHKVFMVKPEEPFQPVKEATQL [R102I], the “area with substrate ENLYFQA” value was found to be 0.0378, the “area with substrate ENLYFQC” value was found to be 0.0504, the “area with substrate ENLYFQD” value was found to be 0.0408 and the “area with substrate ENLYFQE” value came out at 0.0458. The “area with substrate ENLYFQG” value stood at 0.0559, the “area with substrate ENLYFQH” value was 0.0462, the “area with substrate ENLYFQI” value was 0.0365 and the “area with substrate ENLYFQM” value stood at 0.0353. The “area with substrate ENLYFQN” value was found to be 0.0534, the “area with substrate ENLYFQP” value was 0.0387, the “area with substrate ENLYFQR” value is 0.0482 and the “area with substrate ENLYFQS” value turned out to be 0.049. The “area with substrate ENLYFQV” value was 0.0404, the “area with substrate ENLYFQW” value was 0.0551 and the “area with substrate ENLYFQY” value was 0.0511.
